# According to patent US12274759B2, “Affibody proteins specific for B7-H3 (CD276)” (THE BOARD OF TRUSTEES OF THE LELAND STANFORD JUNIOR …, priority 2018, dated 2025):
# “Also recorded” adds a separate entry of the source.
# How the values were obtained:
# [1] = molecular target: T1, recombinant soluble human B7-H3 ectodomain protein (Homo sapiens, UniProt Q5ZPR3); experiment: Streptavidin bead binding to recombinant soluble human B7-H3 ectodomain by flow cytometry; conditions: ligand immobilized to streptavidin magnetic beads; 3 μM recombinant soluble human B7-H3 ectodomain
# T1 construct: incubated with 3 μM of recombinant soluble human B7-H3 ectodomain protein
# T1 sequence (Q5ZPR3 29-466 limits assumed): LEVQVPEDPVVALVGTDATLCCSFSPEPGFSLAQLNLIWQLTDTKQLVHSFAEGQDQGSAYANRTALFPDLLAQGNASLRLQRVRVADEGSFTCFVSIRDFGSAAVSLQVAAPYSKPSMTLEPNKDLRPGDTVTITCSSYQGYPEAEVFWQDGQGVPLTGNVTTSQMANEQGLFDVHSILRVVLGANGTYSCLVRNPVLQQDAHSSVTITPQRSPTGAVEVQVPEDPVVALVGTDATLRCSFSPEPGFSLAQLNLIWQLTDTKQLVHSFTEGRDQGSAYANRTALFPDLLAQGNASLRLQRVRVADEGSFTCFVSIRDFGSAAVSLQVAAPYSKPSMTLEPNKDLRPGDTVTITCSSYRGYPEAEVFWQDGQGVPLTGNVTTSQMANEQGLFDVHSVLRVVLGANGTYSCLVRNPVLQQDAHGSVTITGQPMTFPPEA
# From the text: FIG. 9. Production and validation of ABYB7-H3.(A) Left panel: Commassie Blue staining of SDS-PAGE showing high purity and expected size (7,490 Da) of finalized ABYB7-H3 produced in E. Coli. Right panel: Mass spectrometric analysis of ABYB7-H3 showing a mass-to-charge peak (m/z=7,546) corresponding to ABY molecular weight. A doubly charged peak (m/z=3763) is also present. Amino acid sequence of ABYB7-H3 (SEQ ID NO:28) is shown on the bottom. (B) Flow cytometry of biotin-ABYB7-H3 conjugated streptavidin-microbeads complex showing binding to soluble recombinant B7-H3 (3 μM) as detected by APC conjugated anti-B7-H3 antibody. Unconjugated beads (negative control) and anti B7-H3 antibody (AB) conjugated beads (positive control) were also tested for binding to soluble B7-H3 antigen.
# Production of ABYB7-H3. Development of a B7-H3-binding ligand from an ABY yeast display library is described in Example 1. […] ABYB7-H3 ligand was recombinantly expressed in E. coli, purified, and functionalized with 1:1 molar ratio of biotin. […] In order to confirm binding specificity of recombinantly produced ABYB7-H3 to its target, biotinylated-ABY was immobilized to streptavidin- magnetic beads and incubated with 3 μM of recombinant soluble human B7-H3 ectodomain protein.
# [2] = molecular target: T2, human B7-H3 (MS1 B7-H3+ / MS1hB7-H3 cells) (Homo sapiens, UniProt Q5ZPR3); experiment: Cell-binding assay by flow cytometry on MS1 cells expressing human B7-H3
# T2 construct: expressed in transfected cells; host or cells: MS1 (MILE SVEN 1) mouse vascular endothelial cells, ATCC CRL2279
# T2 sequence (Q5ZPR3 29-534): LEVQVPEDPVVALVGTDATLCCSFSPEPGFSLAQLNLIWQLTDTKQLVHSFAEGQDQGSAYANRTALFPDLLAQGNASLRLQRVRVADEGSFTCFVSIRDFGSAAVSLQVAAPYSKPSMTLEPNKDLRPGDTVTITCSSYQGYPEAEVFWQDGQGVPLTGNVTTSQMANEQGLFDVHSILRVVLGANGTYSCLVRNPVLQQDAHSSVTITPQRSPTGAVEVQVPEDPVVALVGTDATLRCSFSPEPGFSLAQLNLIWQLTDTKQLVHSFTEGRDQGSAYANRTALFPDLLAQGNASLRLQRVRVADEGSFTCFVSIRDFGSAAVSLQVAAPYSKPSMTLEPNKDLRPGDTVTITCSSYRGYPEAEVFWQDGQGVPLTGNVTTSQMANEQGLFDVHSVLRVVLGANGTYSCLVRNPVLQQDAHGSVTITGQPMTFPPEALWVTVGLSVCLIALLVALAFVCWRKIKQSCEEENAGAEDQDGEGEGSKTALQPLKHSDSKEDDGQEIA
# Protocol: (§1) For cell-binding assay, MS1 B7-H3+ cells were stained with streptavidin-APC-labeled B7-H3-affibody for 1 hour at 4° C. and analyzed with FACS. As negative control cells, MS1-WT, a negative cell line, was stained with streptavidin-APC-labeled B7-H3-affibody.
# (§2) Wild-type (WT) MILE SVEN 1 mouse vascular endothelial (MS1-WT or MS1 Control) cells were directly obtained directly from the American Type Culture Collection [(CRL2279; (ATCC)] that performs standard cell line characterizations of mycoplasma, yeast, bacterial, and viral contamination. The cell line was maintained according to the recommendations of the ATCC. Cells were cultured under sterile conditions in DMEM (ATCC) with FBS at 5% and maintained in a 5% CO2-humidified atmosphere at 37° C. Cells were transfected with human B7-H3 DNA. In brief, the human B7-H3 DNA sequence was first optimized for mammalian codon usage using standard techniques. The transfection of MS1-WT cells with the B7-H3-expression vector was performed using lipofectamine 2000 transfection reagent (Life Sciences; Invitrogen), following the recommended manufacturer's standard protocol. MS1 cells stably expressing human B7-H3 (MS1 B7-H3+) were grown in DMEM containing 10% FBS and 0.4 mg/mL puromycin (G418, Sigma) in a 5% CO2 humidified atmosphere and subcultured prior to confluence using trypsin.
# ABYB7-H3 binds specifically to B7-H3. ABYB7-H3 binding to cells predominantly expressing 4lg-B7-H3 (hB7-H3) isoform and mouse cells expressing 2lg-B7-H3 (mB7-H3) isoform was tested. B7-H3 total protein as well as cell-surface expression was confirmed in MS1 mouse endothelial cells engineered to overexpress hB7-H3 (MS1hB7-H3) by western blotting and flow cytometry (FIG. 10A and B); only MS1hB7-H3 cells expressed B7-H3 protein, while both MS1WT and MS1hB7-H3 cells endogenously expressed CD31 protein, a common vascular endothelial marker, by western blot. […] ABYB7-H3 dose dependent increases in binding signal in both MS1hB7-H3 (0-10 μM) and RAW264.7 (0 25 μM) cells was observed, but not in the B7-H3-negative cells, MS1WT.
# [3] = test system: MS1-WT cells (MS1-Control, B7-H3-negative); experiment: Cell-binding assay by flow cytometry on B7-H3-negative MS1 wild-type cells; set-up: species or system mouse
# Protocol: as §1, §2
# (§3) ABYB7-H3 binds specifically to B7-H3. […]
# mB7-H3 (RAW264.7 cells) = molecular target: T3, mB7-H3 (RAW264.7 cells) (Mus musculus, UniProt Q8VE98); experiment: Flow cytometry binding to RAW264.7 mouse monocyte cell line; conditions: Example 3
# T3 construct: endogenous in cells; host or cells: RAW264.7 mouse monocyte cell line
# T3 sequence (Q8VE98 29-316): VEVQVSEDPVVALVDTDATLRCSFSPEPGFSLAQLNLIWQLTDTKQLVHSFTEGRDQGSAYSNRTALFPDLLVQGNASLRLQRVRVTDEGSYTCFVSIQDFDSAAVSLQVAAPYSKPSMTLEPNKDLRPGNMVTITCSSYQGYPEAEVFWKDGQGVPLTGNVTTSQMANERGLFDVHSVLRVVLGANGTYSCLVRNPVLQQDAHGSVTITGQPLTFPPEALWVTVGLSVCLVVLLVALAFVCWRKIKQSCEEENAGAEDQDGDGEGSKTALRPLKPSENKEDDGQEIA
# From the text: (§4) FIG. 10. ABYB7-H3 binds to B7-H3-positive cells with high specificity in vitro. (A) Human B7-H3 protein overexpression in the cell lysate of stably transfected murine endothelial cells, MS1hB7-H3, compared to that of MS1 wild-type (MS1WT) cells by western blot with fluorescent detection. CD31 is an endothelial cell-specific maker and actin β is a protein loading control. Numbers below the protein bands indicate radiance (p/sec/cm^2/sr) of the expressed proteins. (B) Left panel: Histogram showing cell-surface hB7-H3 receptor expression in MS1hB7-H3 cells compared to MS1WT r by flow cytometry using anti-hB7-H3-APC antibody (Ab) or no antibody control (Ctl,). Right panels: Biotin- ABYB7-H3 (10 μM) binding specifically to MS1hB7-H3 cells but not the MS1WT cells as detected by streptavidin-AF647 dye. (C) Cell surface staining of endogenous mB7-H3 in the mouse monocyte cell line, RAW264.7, using anti-mB7-H3 antibody compared to IgG control (Ctl.) antibody; histogram representation of biotin-ABYB7-H3 (10 μM) binding to cells. […] Unstained control (Ctl.) cells used as reference. (E) Immunofluorescence staining with ABYBY-H3-AF647 (red) and a nuclear marker, DAPI (blue), in a human breast tumor and normal breast tissue sections. Scale bar represents 100 μm. Zoomed images of insets are shown on the right panel.
# as §3
# [4] = molecular target: T4, B7-H3 in human breast tumor and normal breast tissue sections (Homo sapiens, UniProt Q5ZPR3); experiment: Immunofluorescence staining of human breast tissue sections with ABYB7-H3-AF647; assay type: binding; conditions: ABYB7-H3 conjugated to AF647 dye
# T4 construct: from tissue; host or cells: human breast tumour and normal breast tissue sections
# T4 sequence (Q5ZPR3 29-534): T2 sequence (Q5ZPR3 29-534)
# From the text: as §4, with “panel. […]” for “panel.”
# [5] = molecular target: T5, human CD276 (B7-H3), MS1-CD276 cells (Homo sapiens, UniProt Q5ZPR3); experiment: Affinity measurement by titration on MS1-CD276 cells, flow cytometry; assay type: binding
# T5 construct: expressed in transfected cells; host or cells: MS1 (Mile Sven 1) mouse endothelial cells, gift from J. Willmann (Stanford)
# T5 sequence (Q5ZPR3 29-534): T2 sequence (Q5ZPR3 29-534)
# Protocol: Affinity Measurement. MS1-CD276 were grown to 70-90% confluence. Cells were washed once with 5 mL PBS, detached by trypsin-EDTA treatment for 4-7 min, quenched by the addition of serum-containing culture medium, pelleted at 500 g for 3 min, and resuspended in PBSACM Fifty thousand cells were pelleted at 500 g for 3 min at 4° C. and incubated with purified ligand at varying concentrations at 4° C. with rotation. Cells were washed once with ice cold PBSACM, pelleted at 500 g for 3 min, incubated with 1:200 dilution rabbit anti-His-tag FITC conjugate (pAb, Genscript) for 30 min at 4° C., washed once more with ice cold PBSACM, and again pelleted at 500 g for 3 min at 4° C. Fluorescence was analyzed by flow cytometry using an Accuri C6. Affibody affinity was determined through nonlinear least squares regression.
# hB7-H3 (THP1 cells) = molecular target: T6, hB7-H3 (THP1 cells) (Homo sapiens, UniProt Q5ZPR3); experiment: Flow cytometry binding to THP1 human monocytic cells induced with PMA; conditions: PMA 10 ng/mL; detected by streptavidin AF647
# T6 construct: endogenous in cells; host or cells: THP1 human monocytic cell line, PMA 0 and 10 ng/mL
# T6 sequence (Q5ZPR3 29-534): T2 sequence (Q5ZPR3 29-534)
# From the text: as §4, with “(E) Immunofluorescence staining with ABYBY-H3-AF647 (red) and a nuclear marker, DAPI (blue), in a human breast tumor and normal breast tissue sections. Scale bar represents 100 μm. Zoomed images of insets are shown on the right panel.” left out
# THP1 cells express a basal level of cell-surface hB7-H3, which was further increased upon stimulation by PMA (10 ng/mL) as detected by APC conjugated anti-B7-H3 antibody using flow cytometry (FIG. 10D).
# B7-H3-cell lysate = molecular target: T7, B7-H3-cell lysate (Homo sapiens, UniProt Q5ZPR3); experiment: Binding to B7-H3-cell lysate; conditions: Example 1
# T7 construct: expressed in transfected cells; host or cells: MS1 (Mile Sven 1) mouse endothelial cells, gift from J. Willmann (Stanford)
# T7 sequence (Q5ZPR3 29-534): T2 sequence (Q5ZPR3 29-534)
# Protocol: FACS Selections with Detergent Solubilized Cell Lysates. Detergent solubilized cell lysates were prepared essentially as described. MS1-Thyl and MS1-CD276 cells were grown to 70-90% confluence in 75 cm^2 tissue culture-treated T-flasks. Culture medium was removed and the cells were washed once with 5 mL PBS. Cells were detached by trypsin-EDTA treatment for 4-7 minutes, quenched with serum-containing culture medium, and centrifuged at 500 g for 3 min. Pelleted cells were washed three times with ice cold PBS and pelleted at 300 g for 3 min at 4° C. Washed cells were resuspended in PBS with 0.5 mg/mL fresh sulfo-NHS-biotin (Thermo Fisher Scientific), rotated for 30 min at room temperature, and washed twice with ice cold PBSA to quench and remove excess biotin. Cells were resuspended in 100-200 μL FACS lysis buffer (PBS with 1% (viv) Triton X-100, 2 mM EDTA, and 1× complete protease inhibitor cocktail (Roche)) and incubated with rotation at 4° C. for 15 min, Cell debris was pelleted at 15,000 g for 30 min at 4° C. and removed. Induced yeast were washed once with PBSA, then incubated with cell lysate and mouse anti-c-Myc antibody (2.5 μg/mL) simultaneously for 2 h at 4° C. with rotation. Yeast were washed with 1 mL ice cold PBS containing 1% (v/v) Triton-X 100 and then with 1 mL ice cold PBSA. […]
# [6] = Example 3, biotinylated ABY detected by streptavidin-AF647, flow cytometry
substance,measurement,setting,value
"ABYB7-H3: engineered B7-H3-specific affibody protein, SEQ ID NO:1 (AC2), recombinantly expressed in E. coli with His6 tag (AEAKYAKEKIFAVGEIYWLPNLTHGQIMAFIAALNDDPSQSSELLSEAKKLNDSQAPK; His6 tag)",binding to soluble B7-H3,[1],68%
same,binding of fluorescently-labeled B7-H3-affibody after blocking of B7-H3 receptors with free B7-H3-affibody,"[2]; Example 1, B7-H3-expressing cells",significantly (P<0.01) decreased binding
same,binding to B7-H3-expressing cells,"[2]; Example 1, MS1 B7-H3+ cells, streptavidin-APC-labeled B7-H3-affibody 5-25 μM, 1 hour at 4° C., FACS",showed binding
same,binding to MS1hB7-H3 cells,[2]; [6],specifically binds; also recorded: bound specifically
same,binding to B7-H3-negative cells (MS1-Control),"[3]; Example 1, MS1-WT cells, streptavidin-APC-labeled B7-H3-affibody 5-25 μM, FACS",no binding
same,binding to MS1WT cells,[3]; [6],not to MS1WT cells
same,binding to mouse monocyte cell line RAW264.7 expressing mB7-H3,mB7-H3 (RAW264.7 cells),specifically binds
same,binding to normal breast tissue sections,[4],did not bind
same,staining of human breast tumor tissue section,[4],stained positive
same,Kd,[5],310 ± 100 nM
same,binding to THP1 cells upon PMA-induced B7-H3 expression,hB7-H3 (THP1 cells),increased biotinylated ABYB7-H3 binding
same,binding to B7-H3-cell lysate,B7-H3-cell lysate,specific binding
